The values below come from PubChem BioAssay AID1508642 (National Center for Advancing Translational Sciences (NCATS), 2021).

The structures appear in SMILES notation. Screen size: about 43,000 compounds; about 200 (0.47%) were called active. Another 12% or so got no clear call; they are omitted. Calls come from the whole dose curve; as a rule, active = well fitted cell-killing curve with a large enough effect; inconclusive = small, poorly fitted or top-dose-only effect, or effect the other way; inactive = flat fitted curve, though single readings scatter. Some of the results follow.
% is set by controls: 0 for no effect and ±100 for the full control effect.

The nature of this assay: Cell viability qHTS assay in S16 Pmp22-F2sN cells. Note: nearly all actives have a fitted effect of over 65% in size. The conditions noted are these: S16 Pmp22-F2sN Schwann cells (luciferase reporters placed in the Pmp22 gene) viability, CellTiter-Glo, 24 h; series mostly up to 57.5 µM; activity change, negative = cytotoxicity: at the top concentration. The essentials: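 Luminescence from CellTiter-Glo, read by CCD camera after a 15 min room-temperature incubation, served as the viability signal. Reporter Schwann cells (S16 Pmp22-F2sN) had been treated with pin-transferred compounds for 24 h at 37C.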
A general note: In qHTS, concentration-response curves come from the screen itself.
Turning to `COc1ccc(CCNC(=O)Cn2c(=O)nc(-c3ccccc3)c3ccccc32)cc1OC`, the “activity change, negative = cytotoxicity” value was inactive: 25.2%.
As for `CCOc1ccccc1CNC(=O)CCCn1ncn2c(cc3occc32)c1=O`, the figure is inactive: 18.3%; as for `CCOc1ccc(C(=O)c2cn(CC(=O)Nc3ccc(F)cc3)c3cc4c(cc3c2=O)OCO4)cc1`, inactive: -1.03%.
As for `CN(C)CCCN(C(=O)c1ccc(Br)s1)c1nc2ccc(F)cc2s1`, the figure is inactive: -0.799%; as for `Cc1ccc2cccc(NC(=O)COc3cc(C)c(Cl)c(C)c3)c2n1`, inactive: 0.801%; as for `CCCSCCCNC(=O)C1CCCN(c2nn3cc(-c4ccc(OC)cc4)nc3s2)C1` (stereo unspecified), inactive: -6.75%.
For `Cn1c(=O)c(=O)n(C)c2cc(NC(=O)c3cccc(F)c3)c(Cl)cc21` the value was inactive: -3.79%; for `CCCCN(CC)CCNC(=O)CN1C(=O)COc2ccc(S(=O)(=O)N3CCCC3)cc21`, inactive: 12.2%.
For the molecule `Cc1ccc(CCNC(=O)CCn2nc(-c3ccccc3)ccc2=O)cc1`, the “activity change, negative = cytotoxicity” value was inactive: 19.8%.
For `Cc1nn(CC(=O)Nc2ccccc2C(F)(F)F)c(=O)c2cccn12` the value was inactive: 8.59%; for `Cc1ccc(NS(=O)(=O)c2ccc3[nH]c(=O)oc3c2)c(C)c1`, inactive: -3.92%; for `CCc1cccc(C)c1NC(=O)c1cc(S(=O)(=O)NCc2ccccc2Cl)ccc1F`, inactive: -20%.
As for `CC(=O)NCC(c1ccc2c(c1)OCO2)N1CCN(c2ccccc2)CC1` (stereo unspecified), the figure is inactive: 11.9%; as for `Fc1ccc(C(NCCc2ccc(Cl)cc2)c2nnc(-c3ccccc3)o2)c(Cl)c1` (stereo unspecified), inactive: 2.75%.
As for `COc1ccccc1CNC(=O)CCn1c(=O)c2ccccc2n(CC(=O)Nc2ccc(C)cc2Cl)c1=O`, the figure is inactive: -4.88%.
For the molecule `CCOC(=O)c1c(S(=O)(=O)NCC(=O)N2CCN(c3ccccc3)CC2)c(C)n(C)c1C`, the “activity change, negative = cytotoxicity” value was inactive: 0.834%.
As for `CCCN(CCC)C(=O)Cn1c(=O)n(-c2ccccc2)c(=O)c2c3c(sc21)CCCC3`, the figure is inactive: 1.64%; as for `O=S(=O)(NCc1nc2cccnc2n1Cc1ccccc1)c1ccc2c(c1)CCCC2`, inactive: -5.41%; as for `N#C/C(=C/c1ccc(Cl)cc1)c1nc(-c2ccc(Br)cc2)cs1`, inactive: 2.75%.
For `CCOC(=O)c1ccc(NC(=O)/C(C#N)=C/c2ccc(OC)cc2)cc1` the value was inactive: 2.77%.
As for `CCc1ccc(-n2c(=O)c3c(C)c(C)sc3n(CC(=O)NCc3ccc(C)cc3)c2=O)cc1`, the figure is inactive: 23.7%; as for `CCCCc1nn2c(=O)cc(COC(=O)c3cccc(NC(=O)CCc4ccccc4)c3)nc2s1`, inactive: -2.24%.
In the case of `Cc1ccc(CSc2oc(-c3ccco3)nc2S(=O)(=O)c2ccc(C)cc2)cc1`, the “activity change, negative = cytotoxicity” value was inactive: 3.91%.
For `COc1cc(/C=C(\C#N)c2nc3ccccc3[nH]2)cc(Cl)c1OCc1ccccc1Cl` the value was inactive: -2.13%; for `CCOc1ccc(NC(=O)CSc2nc(C)c(C(=O)Nc3ccccc3)c(-c3ccc(Cl)cc3)c2C#N)cc1`, inactive: -1.97%.
For `CCc1cccc(-n2c(C)nc3c(cnn3-c3ccc(C)c(C)c3)c2=O)c1` the value was inactive: 1.84%.
